Cytotoxicity call and growth inhibition call data for 27 molecules are collected here from the antibiotic and cytotoxicity screens of Wong et al. (2023).

The other results are listed elsewhere or left out.

Assay [1] deals with HSkMC (human skeletal muscle cells). Briefly: cytotoxicity call (relative viability < 0.9). The note with it: 10 µM.
The subject of assay [2] is HepG2. Briefly: cytotoxicity call (relative viability < 0.9). The note with it: 10 µM.
Assay [3] has as its system S. aureus RN4220. Briefly: growth inhibition call (relative growth <= 0.2). The note with it: 50 µM.

On to `CC(=O)[C@]1(N)Cc2c(O)c3c(c(O)c2[C@@H](O[C@H]2C[C@H](O)[C@H](O)CO2)C1)C(=O)c1ccccc1C3=O`, for which the cytotoxicity call in assay [1] and in assay [2] was “active” each time. For the same molecule, the growth inhibition call in assay [3] is “inactive”.
Turning to `Cc1noc(C)c1NC(=O)Nc1ccc2c(c1)C(=O)N([C@H](C)CO)C[C@@H](C)[C@@H](CN(C)Cc1ccc(C(=O)Nc3ccccc3N)cc1)O2`, the cytotoxicity call in assay [1] and in assay [2] was “inactive” in each case. In addition, in assay [3], the growth inhibition call is “inactive”.
For `O=C(C[C@H]1CC[C@H]2[C@@H](COC[C@@H](O)CN2CC2CCOCC2)O1)N1CCOCC1`, the cytotoxicity call in assay [1] and in assay [2] was “inactive” throughout. For the same molecule, the growth inhibition call in assay [3] is “inactive”.
For `CC(C)NC(=O)Nc1cccc2c1O[C@H](CN(C)C(=O)Nc1ccc3c(c1)OCO3)[C@H](C)CN([C@@H](C)CO)C2=O`, the cytotoxicity call in assay [1] and in assay [2] was “inactive” throughout. Besides, the growth inhibition call in assay [3] is “inactive”.
As to `CCCNC(=O)Nc1ccc2c(c1)C(=O)N(C)C[C@H](OC)[C@H](C)CN(C(=O)C1CCOCC1)[C@H](C)CO2`, the cytotoxicity call in assay [1] and in assay [2] was “inactive” throughout. In assay [3], the growth inhibition call is “inactive”.
Turning to `CCOC(=O)N(C)C[C@@H]1OCc2cnnn2CCCC(=O)N([C@@H](C)CO)C[C@@H]1C`, the cytotoxicity call in assay [1] and in assay [2] was “inactive” throughout. In addition, the growth inhibition call in assay [3] was “inactive”.
Consider `NCc1csc2c1CCCC2`, for which the cytotoxicity call in assay [1] and in assay [2] was “inactive” in each case. Besides, the growth inhibition call in assay [3] is “inactive”.
On to `CCO[C@@H]1OC(C(=O)N2CCN(Cc3ccc4c(c3)OCO4)CC2)=C[C@H](c2csc3ccccc23)[C@H]1CCCOC(=O)NCCCCCC(=O)NO`, for which the cytotoxicity call in assay [1] and in assay [2] was “inactive” in each case. For the same molecule, the growth inhibition call in assay [3] was “inactive”.
With `COc1ccc(cc1)S(=O)(=O)N1C[C@]2(C1)CN([C@@H](CO)c1c2c2ccc(cc2n1C)OC)C(=O)CN(C)C`, the cytotoxicity call in assay [1] and in assay [2] was “inactive” each time. Further, the growth inhibition call in assay [3] is “inactive”.
Take `CC(=O)O[C@@H]1[C@H](OC(C)=O)N(C(C)=O)C(=O)N1C(C)=O`: the cytotoxicity call in assay [1] and in assay [2] was “inactive” throughout. Further, in assay [3], the growth inhibition call is “inactive”.
With `Nn1c(C(F)(F)F)n[nH]c1=S`, the cytotoxicity call in assay [1] and in assay [2] was “inactive” throughout. The growth inhibition call in assay [3] is “inactive”.
`C[C@@H]1CN([C@H](C)CO)C(=O)c2cc(NC(=O)c3ccncc3)ccc2O[C@@H]1CN(C)S(=O)(=O)c1ccc(F)cc1`: the cytotoxicity call in assay [1] and in assay [2] was “inactive” in each case. Besides, in assay [3], the growth inhibition call is “inactive”.
As to `C[C@@H]1CN([C@H](C)CO)C(=O)c2cc(NC(=O)CCN3CCOCC3)ccc2O[C@@H]1CN(C)CC1CCCCC1`, the cytotoxicity call in assay [1] and in assay [2] was “inactive” throughout. For the same molecule, the growth inhibition call in assay [3] was “inactive”.
As to `C[C@@H]1CCCCO[C@@H](CN(C)S(=O)(=O)c2ccc(F)cc2)[C@H](C)CN([C@H](C)CO)C(=O)c2cc(NC(=O)NC3CCCCC3)ccc2O1`, the cytotoxicity call in assay [1] was “inactive”. In addition, the cytotoxicity call in assay [2] was “active”. Moreover, the growth inhibition call in assay [3] was “inactive”.
As to `CC1CC=CC=CC=CC=CC(OC2OC(C)C(O)C(N)C2O)CC2OC(O)(CC(O)CC3OC3C=CC(=O)O1)CC(O)C2C(=O)O` (stereo unspecified), the cytotoxicity call in assay [1] and in assay [2] was “inactive” throughout. For the same molecule, the growth inhibition call in assay [3] is “inactive”.
As to `Cc1noc(C)c1NC(=O)Nc1ccc2c(c1)CC(=O)N([C@H](C)CO)C[C@@H](C)[C@@H](CN(C)Cc1ccc(C(=O)Nc3ccccc3N)cc1)O2`, the cytotoxicity call in assay [1] and in assay [2] was “inactive” each time. In assay [3], the growth inhibition call was “inactive”.
For `C[C@H]1CCCCO[C@@H](CN(C)Cc2ccc(C(=O)O)cc2)[C@@H](C)CN([C@@H](C)CO)C(=O)c2cc(NC(=O)Nc3ccc(C(F)(F)F)cc3)ccc2O1`, the cytotoxicity call in assay [1] and in assay [2] was “inactive” each time. In addition, in assay [3], the growth inhibition call is “inactive”.
Regarding `CC(=O)O[C@H]1C[C@@]2(C)[C@@H](C[C@@H](O)[C@H]3[C@@]4(C)CC[C@@H](O)[C@@H](C)[C@@H]4CC[C@@]32C)/C1=C(\CCC=C(C)C)C(=O)O`, the cytotoxicity call in assay [1] and in assay [2] was “inactive” throughout. Further, the growth inhibition call in assay [3] is “active”.
In the case of `C[C@H](CO)N1C[C@H](C)[C@H](CN(C)S(C)(=O)=O)Oc2ccc(NC(=O)CCN3CCOCC3)cc2C1=O`, the cytotoxicity call in assay [1] and in assay [2] was “inactive” in each case. For the same molecule, the growth inhibition call in assay [3] is “inactive”.
For `CC(C)=CCC[C@]1(C)[C@@H](CC=C(C)C)C[C@]2(CC=C(C)C)C(=O)C(CC=C(C)C)=C(O)[C@@]1(C(=O)C(C)C)C2=O`, the cytotoxicity call in assay [1] and in assay [2] was “inactive” throughout. The growth inhibition call in assay [3] was “active”.
For the molecule `COc1ccc(S(=O)(=O)Nc2ccc3c(c2)C(=O)N([C@@H](C)CO)C[C@H](C)[C@H](CN(C)C(=O)CCC(F)(F)F)OCCCC[C@H](C)O3)cc1`, the cytotoxicity call in assay [1] and in assay [2] was “inactive” in each case. In addition, in assay [3], the growth inhibition call is “inactive”.
As to `O=C(C[C@H]1CC[C@@H]2[C@H](COC[C@@H](O)CN2Cc2ccccc2F)O1)N[C@H]1CCN(Cc2ccccc2)C1`, the cytotoxicity call in assay [1] and in assay [2] was “inactive” in each case. Also, the growth inhibition call in assay [3] was “inactive”.
Regarding `CCCN(C)C[C@@H]1OCCCC[C@@H](C)Oc2ccc(NC(=O)Nc3ccc(F)cc3)cc2C(=O)N([C@H](C)CO)C[C@H]1C`, the cytotoxicity call in assay [1] and in assay [2] was “inactive” throughout. Moreover, the growth inhibition call in assay [3] is “inactive”.
For the molecule `Cc1noc(C)c1NC(=O)Nc1ccc2c(c1)C(=O)N([C@@H](C)CO)C[C@@H](C)[C@H](CN(C)Cc1ccncc1)OCCCC[C@H](C)O2`, the cytotoxicity call in assay [1] and in assay [2] was “inactive” in each case. Besides, in assay [3], the growth inhibition call is “inactive”.
`C[C@H]1CN([C@@H](C)CO)C(=O)c2ccccc2-c2ccccc2CO[C@H]1CN(C)C(=O)Nc1ccc(-c2ccccc2)cc1`: the cytotoxicity call in assay [1] and in assay [2] was “inactive” in each case. For the same molecule, the growth inhibition call in assay [3] is “inactive”.
As for `C[C@@H]1CCCCO[C@@H](CN(C)C(=O)Nc2ccccc2)[C@@H](C)CN([C@@H](C)CO)C(=O)c2cc(NS(=O)(=O)c3ccc(F)cc3)ccc2O1`, the cytotoxicity call in assay [1] and in assay [2] was “inactive” in each case. The growth inhibition call in assay [3] was “inactive”.
With `NCC[C@H]1CC[C@H](NC(=O)C2CCCCC2)[C@@H](CO)O1`, the cytotoxicity call in assay [1] and in assay [2] was “inactive” each time. The growth inhibition call in assay [3] is “inactive”.
